{
  "source": "patent US20070059684A1",
  "about": "(UNIVERSITY OF MEDICINE AND DENTISTRY OF NEW JERSEY, published 2007)",
  "key": {"[1]": {"test_system": "−1 ribosomal frameshifting", "conditions": "yeast extract, increasing concentrations, 24° C. 1 hr"}, "translation (LUC0 mRNA)": {"test_system": "translation (LUC0 mRNA)", "procedure": "(§1) FIG. 14. The LUC0 and LUC-1 mRNAs were used to measure the effects of anisomycin and sparsomycin on translation and −1 ribosomal frameshifting in an in vitro rabbit reticulocyte translation system (Retic Lysated WVT kit, Ambion). As in FIG. 13, 20 ng of either LUC0 or LUC-1 mRNAs were used for these assays.\n(§2) As a first step, the LUC0 and LUC-1 mRNAs were used to measure the effects of these two drugs on translation and −1 ribosomal frameshifting in an in vitro rabbit reticulocyte translation system. […] Some notable differences were observed. First, the reticulocyte extracts were approximately 10 times more sensitive to anisomycin and 100 times more sensitive to sparsomycin than were the yeast extracts. […] With regard to −1 ribosomal frameshifting, the reticulocyte system was much more sensitive to both drugs. The highest concentration of anisomycin (15.2 nM) decreased −1 ribosomal frameshifting efficiencies to only 3% of the no drug control, effectively shutting it down. […] As with the yeast in vitro translation system, initial efficiencies of −1 ribosomal frameshifting were higher than observed in vivo, again most likely due to stabilization of the LUC-1 mRNA in this system."}, "[2]": {"test_system": "−1 ribosomal frameshifting", "procedure": "as §1, §2"}, "[3]": {"test_system": "−1 ribosomal frameshifting in mak8-2 cells", "conditions": "mak8-2 cells (1906)", "procedure": "FIG. 9. 1906 Cells (MATa leu2 mak8-2 K− MTK+) harboring either pJD136.0 or pJD136.-1 (LEU2 CEN vectors into which Hind III fragments from either pTI25 or pF8 containing either the 0-frame control or −1 ribosomal frameshift indicator fragments were cloned) were inoculated to an O.D.550 of 0.2 in H-Leu medium containing the indicated concentrations of anisomycin or sparsomycin and incubated at 30° C. for 5 hrs, after which _-galactosidase (_-gal) activities were determined. (A, B) As described above for FIGS. 8A and 8B. (C, D) The ordinate depicts actual −1 ribosomal frameshifting efficiencies.\nThe model also predicts that host cells harboring mutations in gene products involved in the formation of the peptidyl transferase center should 1) have efficiencies of −1 ribosomal frameshifting different from wild-type cells, 2) should have viral propagation defects and, 3) neither anisomycin nor sparsomycin should have any additional effects upon −1 ribosomal frameshifting efficiencies. The TCM1 (MAK8) gene encodes ribosomal protein L3 [Fried and Warner, Proc. Natl. Acad. Sci. USA, 78:238 (1981); Fried and Warner, Nucl. […] The efficiency of −1 ribosomal frameshifting in mak8-2 cells in the absence of drugs was determined to be approximately 5.2% (FIG. 9A,B, no drug). […]"}, "[4]": {"test_system": "−1 ribosomal frameshifting (L-A frameshift signal, pF8)", "test": "paromomycin effect on LacZ gene expression / % −1 ribosomal frameshifting in mof4-1 strains", "conditions": "for % −1 ribosomal frameshifting: 30° C. 4 hours"}},
  "data": [
    {"smiles": "COc1ccc(C[C@H]2NC[C@H](O)[C@H]2OC(C)=O)cc1", "note": "[anisomycin]", "values": [
      {"measurement": "efficiency of −1 ribosomal frameshifting in vitro", "setting": "[1]", "value": "decreased the efficiency of −1 ribosomal frameshifting"},
      {"measurement": "overall production of luciferase from the LUC0 mRNA", "setting": "translation (LUC0 mRNA)", "value": "stimulated overall production of luciferase"},
      {"measurement": "sensitivity of reticulocyte extracts relative to yeast extracts", "setting": "[2]", "value": "approximately 10 times"},
      {"measurement": "−1 ribosomal frameshifting", "setting": "[2]; […]", "value": "inhibits"},
      {"measurement": "−1 ribosomal frameshifting efficiency as % of the no drug control", "setting": "[2]; highest concentration of anisomycin (15.2 nM)", "value": 3, "unit": "%"},
      {"measurement": "efficiency of −1 ribosomal frameshifting", "setting": "[3]", "value": "neither of these drugs affects the efficiency of −1 ribosomal frameshifting"}
    ]},
    {"smiles": "NC[C@@H]1O[C@H](O[C@H]2[C@@H](O)[C@H](O[C@@H]3[C@@H](O)[C@H](N)C[C@H](N)[C@H]3O[C@H]3O[C@H](CO)[C@@H](O)[C@H](O)[C@H]3N)O[C@@H]2CO)[C@H](N)[C@@H](O)[C@@H]1O", "note": "[paromomycin]", "values": [
      {"measurement": "% −1 ribosomal frameshifting", "setting": "[4]; mof4-1 + pUPF1, paromomycin 5 μg/ml", "value": 2.2, "unit": "%"},
      {"measurement": "% −1 ribosomal frameshifting", "setting": "[4]; mof4-1 + pUPF1, paromomycin 10 μg/ml", "value": 3.0, "unit": "%"},
      {"measurement": "% −1 ribosomal frameshifting", "setting": "[4]; mof4-1 + pUPF1, paromomycin 25 μg/ml", "value": 2.9, "unit": "%"},
      {"measurement": "% −1 ribosomal frameshifting", "setting": "[4]; mof4-1 + pUPF1, paromomycin 50 μg/ml", "value": 2.0, "unit": "%"},
      {"measurement": "% −1 ribosomal frameshifting", "setting": "[4]; mof4-1 + pUPF1, paromomycin 100 μg/ml", "value": 2.6, "unit": "%"},
      {"measurement": "% −1 ribosomal frameshifting", "setting": "[4]; mof4-1 + pUPF1, paromomycin 250 μg/ml", "value": 2.2, "unit": "%"},
      {"measurement": "% −1 ribosomal frameshifting", "setting": "[4]; mof4-1 + pUPF1, paromomycin 500 μg/ml", "value": 2.2, "unit": "%"},
      {"measurement": "% −1 ribosomal frameshifting", "setting": "[4]; mof4-1, paromomycin 5 μg/ml", "value": 9.2, "unit": "%"},
      {"measurement": "% −1 ribosomal frameshifting", "setting": "[4]; mof4-1, paromomycin 10 μg/ml", "value": 9.4, "unit": "%"},
      {"measurement": "% −1 ribosomal frameshifting", "setting": "[4]; mof4-1, paromomycin 25 μg/ml", "value": 13.5, "unit": "%"},
      {"measurement": "% −1 ribosomal frameshifting", "setting": "[4]; mof4-1, paromomycin 50 μg/ml", "value": 14.7, "unit": "%"},
      {"measurement": "% −1 ribosomal frameshifting", "setting": "[4]; mof4-1, paromomycin 100 μg/ml", "value": 15.3, "unit": "%"},
      {"measurement": "% −1 ribosomal frameshifting", "setting": "[4]; mof4-1, paromomycin 250 μg/ml", "value": 17.8, "unit": "%"},
      {"measurement": "% −1 ribosomal frameshifting", "setting": "[4]; mof4-1, paromomycin 500 μg/ml", "value": 22.2, "unit": "%"},
      {"measurement": "LacZ expression (β-galactosidase activity)", "setting": "[4]; mof4-1 strain, increasing concentrations of paromomycin", "value": "steadily climbed"},
      {"measurement": "β-galactosidase activity", "setting": "[4]; wildtype strain or mof4-1 strain harboring the wildtype UPF1 gene, addition of paromomycin", "value": "unaffected"}
    ]}
  ]
}
